{"source": "PubChem BioAssay AID1030", "about": "(National Center for Advancing Translational Sciences (NCATS), 2008)", "note": "Among all 220,000 compounds or so, about 16,000 (7.3%) were called active. This list was built around the results that the source calls inconclusive (neither active nor inactive); the mix of calls is not that of the screen. Calls follow the shape of the dose curve; as a rule, active = well fitted inhibition curve with a large enough effect (not every such curve was filed as active); inconclusive = small, poorly fitted or top-dose-only effect, or another doubt; inactive = no such curve, though single readings can be large or run the other way. Potencies of inconclusive entries are left out as doubtful fits. Potency is read from the fitted curve at half-maximal effect; tags tell the direction and shape of the fitted curve.", "data": [{"molecular_target": "Aldehyde dehydrogenase 1A1 (Homo sapiens) (UniProt P00352)", "sequence (P00352 whole entry, looked up)": "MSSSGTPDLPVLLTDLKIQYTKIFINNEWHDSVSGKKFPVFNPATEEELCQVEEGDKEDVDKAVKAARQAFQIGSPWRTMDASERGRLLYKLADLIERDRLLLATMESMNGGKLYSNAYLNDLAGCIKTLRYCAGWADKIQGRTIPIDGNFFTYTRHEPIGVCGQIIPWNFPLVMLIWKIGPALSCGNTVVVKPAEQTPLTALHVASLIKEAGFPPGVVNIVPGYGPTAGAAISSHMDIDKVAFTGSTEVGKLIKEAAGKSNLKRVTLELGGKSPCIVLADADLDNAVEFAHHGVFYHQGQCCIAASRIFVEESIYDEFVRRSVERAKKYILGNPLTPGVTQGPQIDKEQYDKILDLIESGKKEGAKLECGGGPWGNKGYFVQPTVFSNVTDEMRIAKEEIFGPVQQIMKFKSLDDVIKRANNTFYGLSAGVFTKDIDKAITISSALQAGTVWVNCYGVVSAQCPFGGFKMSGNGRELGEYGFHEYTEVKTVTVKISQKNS", "assay": "qHTS Assay for Inhibitors of Aldehyde Dehydrogenase 1 (ALDH1A1)", "conditions": "Purified ALDH1A1, NADH fluorescence, propionaldehyde substrate; series mostly up to 75.3 µM", "values": [{"smiles": "O=C(c1cnc2n(c1=O)CCS2)N(C1CCCCC1)C1CCCCC1", "Potency": "inactive"}, {"smiles": "COc1cc(Sc2ccc(C)cc2)c(OC)cc1N", "Potency": "active: 3.55 µM"}, {"smiles": "Cc1ccc2c(c1)N(CCC(=O)NC1CC1)C(=O)C(C)O2", "note": "(configuration not stated)", "Potency": "inconclusive [inhibitor, partial curve]"}, {"smiles": "COc1cccc(C(=O)N2CCN(CCCc3ccccc3)CC2)c1OC", "Potency": "inconclusive [inhibitor, single point]"}, {"smiles": "NC(=O)c1cc[n+](CC(=O)c2ccc(NC(=O)c3ccccc3)cc2)cc1", "Potency": "active: 4.47 µM"}, {"smiles": "COCCNC(=O)C(c1ccc(O)cc1)N(Cc1ccco1)C(=O)CCC(=O)Nc1nccs1", "note": "(configuration not stated)", "Potency": "inconclusive [inhibitor, single point]"}, {"smiles": "Cc1ccc(NCc2n[nH]c(=S)n2-c2ccccc2)cc1", "Potency": "inconclusive [inhibitor, single point]"}, {"smiles": "Cn1c(=O)c2cc(NCc3ccccc3)nnc2n(C)c1=O", "Potency": "inconclusive [inhibitor, partial curve]"}, {"smiles": "Cc1cccc(N2CCN(C(c3ccccc3)c3nnnn3CC3CCCO3)CC2)c1C", "note": "(configuration not stated)", "Potency": "inactive"}, {"smiles": "CCn1c(-c2cccn(Cc3ccccc3)c2=O)n[nH]c1=S", "Potency": "inactive"}, {"smiles": "COc1ccc(Oc2cccc(Cl)c2CNC(=O)CCC(=O)O)cc1", "Potency": "inactive"}, {"smiles": "CN(C)c1ccc(/C=C(\\C#N)c2ccccc2)cc1", "Potency": "inconclusive [inhibitor, partial curve, poor fit]"}, {"smiles": "CNC(=S)NNC(=O)CNc1ccc(C)c(Cl)c1", "Potency": "inconclusive [inhibitor, single point]"}, {"smiles": "CC(=O)Oc1ccc(C2OC(=O)c3ccccc3N2C(C)=O)cc1", "note": "(configuration not stated)", "Potency": "inactive"}, {"smiles": "CCOC(=O)c1c(N)sc(C(=O)Nc2ccccc2)c1C", "Potency": "active: 10 µM"}, {"smiles": "CCn1c(=S)[nH]c2cc(C(=O)O)ccc21", "Potency": "inconclusive [inhibitor, single point]"}, {"smiles": "COc1ccccc1Nc1nc(-c2c(C)[nH]c3ccccc23)cs1", "Potency": "inconclusive [inhibitor, single point]"}, {"smiles": "O=C(CCl)c1ccc2c(c1)CCN2C(=O)C1CCCCC1", "Potency": "inconclusive [inhibitor, full curve]"}, {"smiles": "COc1ccccc1C1C=C(c2ccc(Cl)cc2)Nc2nc(NS(C)(=O)=O)nn21", "note": "(configuration not stated)", "Potency": "inconclusive [inhibitor, single point]"}, {"smiles": "CCCS(=O)(=O)N1CCN(C2CCC(C)CC2)CC1", "note": "(configuration not stated)", "Potency": "inconclusive [inhibitor, single point]"}, {"smiles": "O=C(CCl)Nc1cn(-c2ccccc2)nc1-c1ccccc1", "Potency": "active: 14.1 µM"}, {"smiles": "Cc1ccccc1Nc1oc(-c2ccccc2)nc1-c1cccc2ccccc12", "Potency": "active: 25.1 µM"}, {"smiles": "O=C(O)/C=C\\C(=O)Nc1ccccc1C(=O)NC1CCCCC1", "Potency": "inconclusive [inhibitor, single point]"}, {"smiles": "COc1cccc(CC2(CO)CCCN(S(=O)(=O)N(C)C)C2)c1", "note": "(configuration not stated)", "Potency": "inactive"}, {"smiles": "COc1cccc(Nc2nc(=O)[nH]nc2C)c1", "Potency": "inactive"}, {"smiles": "O=C(NCC1COc2ccccc2O1)C1CCCN(S(=O)(=O)c2cccc3nsnc23)C1", "note": "(configuration not stated)", "Potency": "inactive"}, {"smiles": "C(=N\\Nc1nc(-c2ccccc2)cs1)/c1ccncc1", "Potency": "inconclusive [inhibitor, single point]"}, {"smiles": "CCC(=O)N1CCCc2cc(S(=O)(=O)N3CCN(C4CCCCC4)CC3)ccc21", "Potency": "inconclusive [inhibitor, single point]"}, {"smiles": "COc1ccccc1CNC(=O)C(NC(=O)c1ccccc1C)C(C)C", "note": "(configuration not stated)", "Potency": "inactive"}, {"smiles": "O=C(c1cc2nc(C3CC3)cc(C(F)(F)F)n2n1)N1CCCC1", "Potency": "inactive"}, {"smiles": "O=C(c1ccc(Cl)cc1)[C@@H]1[C@@H]2C(=O)N(c3cccc4ccccc34)C(=O)[C@@H]2C2c3ccccc3C=NN21", "note": "(some centres not stated)", "Potency": "inconclusive [inhibitor, single point]"}, {"smiles": "O=C(N/C(=C\\c1cn(-c2ccccc2)nc1-c1ccccc1)C(=O)N1CCOCC1)c1ccccc1", "Potency": "inconclusive [inhibitor, partial curve]"}, {"smiles": "CCc1ccc(N2CC(C(=O)Nc3nccs3)CC2=O)cc1", "note": "(configuration not stated)", "Potency": "inconclusive [inhibitor, partial curve]"}, {"smiles": "C=CCNC(=S)N/N=C/c1ccc(C(F)(F)F)cc1", "Potency": "inactive"}, {"smiles": "CC(C)(C)OC(=O)NCCC(=O)Oc1ccc2ccc(=O)oc2c1", "Potency": "inconclusive [inhibitor, partial curve]"}, {"smiles": "NC(=O)c1ccc(-c2ncc(-c3ccccc3)o2)cc1", "Potency": "inconclusive [inhibitor, partial curve]"}, {"smiles": "COc1ccc(N2C(=O)CSC2c2cccs2)cc1", "note": "(configuration not stated)", "Potency": "inconclusive [inhibitor, single point]"}, {"smiles": "Cc1nnc(Sc2cc(C(=O)NCCCN(C)Cc3ccccc3)c3ccccc3n2)s1", "Potency": "inactive"}, {"smiles": "Cc1cnc(CNc2ncncc2-c2ccccc2C#N)cn1", "Potency": "inactive"}, {"smiles": "N=C1/C(=C\\c2ccc(OCc3ccccc3)cc2)C(=O)N=C2SC(N3CCCC3)=NN12", "Potency": "inactive"}, {"smiles": "C=CCn1c(COc2ccccc2F)nnc1SCC(=O)N1CC(=O)Nc2ccccc21", "Potency": "inactive"}, {"smiles": "O=C1CC(Nc2ccc(N3CCOCC3)cc2)C(=O)N1Cc1ccccc1", "note": "(configuration not stated)", "Potency": "inconclusive [inhibitor, single point]"}, {"smiles": "C[C@@H](C(=O)O)c1ccc(N2Cc3ccccc3C2=O)cc1", "Potency": "inactive"}, {"smiles": "Cc1ccc(CN(Cc2cc3cccc(C)c3[nH]c2=O)C(=O)N(C)C)cc1", "Potency": "inconclusive [inhibitor, single point]"}, {"smiles": "CCCCNC(=O)c1ccc2c(SCC(=O)O)c3c(nc2c1)CCCC3", "Potency": "inconclusive [inhibitor, single point]"}, {"smiles": "CCOCCCNCC(=O)Nc1ccc(S(=O)(=O)NC(C)CC)cc1", "note": "(configuration not stated)", "Potency": "inconclusive [inhibitor, single point]"}, {"smiles": "Cn1cccc1C(=O)C(=O)Nc1cc(Cl)cc(Cl)c1", "Potency": "inconclusive [inhibitor, single point]"}, {"smiles": "O=C(N/N=C/c1cccc(O)c1)c1ccc(COc2cccc3cccnc23)cc1", "Potency": "inactive"}, {"smiles": "O=C(NNc1ccc(-c2csnn2)cc1)c1ccccc1C(F)(F)F", "Potency": "inactive"}, {"smiles": "C=CCSc1nc2ccccc2n1C(=O)/C=C/c1cc(OC)c(OC)c(OC)c1", "Potency": "inconclusive [inhibitor, single point]"}, {"smiles": "Cc1cccc(N2CCN(c3nc4nonc4nc3N3CCSCC3)CC2)n1", "Potency": "inconclusive [inhibitor, partial curve]"}, {"smiles": "c1ccc(Nc2nc(-c3ccncc3)nc3ccccc23)cc1", "Potency": "inconclusive [inhibitor, single point]"}, {"smiles": "Cc1ccc(Nc2nc(C(=O)NCCCN3CCOCC3)cs2)cc1", "Potency": "inactive"}, {"smiles": "CCc1ccc(CN(C)C(=O)CC2C(=O)NCCN2Cc2ccoc2)cc1", "note": "(configuration not stated)", "Potency": "inconclusive [inhibitor, single point]"}, {"smiles": "O=C(NNC(=O)c1cccs1)c1ccc(S(=O)(=O)N2CCCCC2)cc1", "Potency": "inconclusive [inhibitor, single point]"}, {"smiles": "Cc1ccc(Oc2ncnc3sccc23)cc1", "Potency": "inconclusive [inhibitor, partial curve]"}, {"smiles": "COc1ccc(NC(=O)/C(=C/c2ccc(OC(C)=O)c(OC)c2)NC(C)=O)cc1", "Potency": "active: 3.98 µM"}, {"smiles": "CCOC(=O)C1=C(C)NC(=O)C(C(N)=O)C1c1ccccc1", "note": "(configuration not stated)", "Potency": "inactive"}, {"smiles": "CN(CCCNC(=O)C1CCCN(S(=O)(=O)c2cnc[nH]2)C1)c1ccccc1", "note": "(configuration not stated)", "Potency": "inconclusive [inhibitor, single point]"}, {"smiles": "CCc1cc2c(=O)c(-c3nc4ccccc4n3C)coc2c(CN2CCN(C)CC2)c1O", "Potency": "inconclusive [inhibitor, partial curve]"}, {"smiles": "CCOC(=O)c1c(NC(=O)CC2SC(N)=NC2=O)sc2c1CCCC2", "note": "(configuration not stated)", "Potency": "inactive"}, {"smiles": "Cc1nc2sc(C(c3cccc(F)c3)N3CCC(C)CC3)c(O)n2n1", "note": "(configuration not stated)", "Potency": "inactive"}, {"smiles": "COc1cc2c(C)nc3c(cnn3-c3ccccc3)c2cc1OC", "Potency": "inconclusive [inhibitor, single point]"}, {"smiles": "Cc1cc2c(cc1C)N(CC(=O)N1CCCC1)C(=O)CC(c1ccccc1)=N2", "Potency": "inconclusive [inhibitor, single point]"}, {"smiles": "COc1ccc(CCNC(=O)C(=O)NCc2ccc(Cl)cc2)cc1OC", "Potency": "active: 0.631 µM"}, {"smiles": "COc1ccc(Cn2c(=O)[nH]c3cc(C(=O)NCCCOC(C)C)ccc3c2=O)cc1", "Potency": "inconclusive [inhibitor, single point]"}, {"smiles": "O=C(/C=C/c1ccc(Cl)cc1)N1CCN(c2ccc(Cl)cc2[N+](=O)[O-])CC1", "Potency": "inactive"}, {"smiles": "O=C1NN=C(CSc2n[nH]c(=S)s2)CS1", "Potency": "active: 3.55 µM"}, {"smiles": "CCOc1ccc(Br)cc1S(=O)(=O)Nc1ccc(N2CCOCC2)cc1", "Potency": "inactive"}, {"smiles": "COc1ccc(CNC(=O)CSc2nc3ccc(N)cc3s2)cc1", "Potency": "inconclusive [inhibitor, single point]"}, {"smiles": "O=c1[nH]c2ccc(S(=O)(=O)N3CCCCC3)cc2o1", "Potency": "inactive"}, {"smiles": "O=C(CSc1ncn[nH]1)Nc1ccc(Cl)c(Cl)c1", "Potency": "active: 3.98 µM"}, {"smiles": "O=C(OCc1ccc(Br)cc1)c1cccc(-c2nnc(-c3ccccc3)o2)c1", "Potency": "inconclusive [inhibitor, partial curve]"}, {"smiles": "Cc1ccc(C(=O)/C=C/c2ccccc2)o1", "Potency": "inactive"}, {"smiles": "CCOC(=O)CCSCC(=O)Nc1cc(C)on1", "Potency": "inconclusive [inhibitor, partial curve]"}, {"smiles": "O=C(NCC1CCCO1)c1ccc2c(=O)n(CC3CCCO3)c(=S)[nH]c2c1", "note": "(configuration not stated)", "Potency": "active: 11.2 µM"}, {"smiles": "Cc1ccc(-c2c[n+](CC(=O)Nc3cc(=O)n(C)c(=O)n3C)c3n2CCC3)cc1", "Potency": "inactive"}]}]}
